Consider 86 sequences from the supplement of paper PMC3334620.

The full ranking holds about 33,000 sequences; the median of “E-score (-0.5 to 0.5)” is about -0.043, and the highest 2% start at about 0.37. Some of the results follow.

This experiment has as its target T1, Upc2 (UniProt Q12151).
T1 sequence: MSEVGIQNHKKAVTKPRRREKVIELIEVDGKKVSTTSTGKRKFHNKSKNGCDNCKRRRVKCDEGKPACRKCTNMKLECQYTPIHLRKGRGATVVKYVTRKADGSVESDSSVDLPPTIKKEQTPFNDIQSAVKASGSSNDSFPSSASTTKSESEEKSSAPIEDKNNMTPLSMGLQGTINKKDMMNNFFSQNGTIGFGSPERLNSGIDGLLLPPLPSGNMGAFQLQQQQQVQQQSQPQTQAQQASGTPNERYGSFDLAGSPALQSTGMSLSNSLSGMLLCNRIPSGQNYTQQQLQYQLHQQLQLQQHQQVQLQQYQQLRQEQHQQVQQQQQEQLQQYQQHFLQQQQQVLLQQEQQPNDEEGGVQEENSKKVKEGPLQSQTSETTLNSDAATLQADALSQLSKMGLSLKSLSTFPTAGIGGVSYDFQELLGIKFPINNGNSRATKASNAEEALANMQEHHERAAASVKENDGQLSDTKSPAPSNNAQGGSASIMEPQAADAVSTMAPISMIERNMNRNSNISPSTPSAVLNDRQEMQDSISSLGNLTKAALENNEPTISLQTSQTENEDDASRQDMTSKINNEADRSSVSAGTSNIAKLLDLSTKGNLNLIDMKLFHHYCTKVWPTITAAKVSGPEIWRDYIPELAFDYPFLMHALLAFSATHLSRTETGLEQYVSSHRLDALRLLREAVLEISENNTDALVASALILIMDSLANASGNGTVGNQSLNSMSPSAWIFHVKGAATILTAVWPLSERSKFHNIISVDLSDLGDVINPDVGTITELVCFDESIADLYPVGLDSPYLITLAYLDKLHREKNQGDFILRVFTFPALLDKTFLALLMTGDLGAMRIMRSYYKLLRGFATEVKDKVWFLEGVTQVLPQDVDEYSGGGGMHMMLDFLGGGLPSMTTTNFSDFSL
As to the kind of experiment: PBM E-score (8-mer binding enrichment) (E-score (-0.5 to 0.5)); higher = stronger / more preferred TF binding; most listed sequences are background and not binding sites. The settings on record: protein concentration: 200 nM; construct: GST-full length. Put shortly: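 Universal all-10-mer Agilent arrays, fresh or stripped once, were converted to double-stranded form by primer extension. GST-tagged yeast transcription factors from PURExpress in vitro transcription/translation, full-length or DNA-binding domain only, were applied at about 100-200 nM and detected with fluorescent anti-GST. After masliner normalisation, the Universal PBM Analysis Suite scored each ungapped eight-base word together with its reverse complement by E-score.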
For the sequence AGTCGCGG, the “PBM E-score” value is -0.0796. For the sequence ACATATCC, the “PBM E-score” value was -0.0597. As for GAGCCTCC, the figure is -0.0602. Turning to TAGATGCA, the “PBM E-score” value was determined as 0.033. To ACTGTTCC belongs -0.00914; to AAGTCCCG, -0.135; to AAATTGTC, -0.0682. To ACGAGAAA belongs 0.349. To AGCTTTGC belongs -0.0852. Take AAGTTAAT: the “PBM E-score” value was -0.0268. As for ACCCAACT, the figure is 0.0275; as for AACCCCGC, -0.0131.

Consider AATGCTCG, for which the “PBM E-score” value came out at 0.179.

With CAAAAACA, the “PBM E-score” value was 0.0635. To AATTGTTA belongs 0.00213; to CAATAAAC, 0.158; to CCCTTCCA, -0.32.

With GATTGAAC, the “PBM E-score” value was 0.0493.

For ACGATATC, the “PBM E-score” value worked out at 0.345. To AACGAATC belongs 0.39.

As to TACATGCA, the “PBM E-score” value is 0.121.

In the case of ACCGATCA, the “PBM E-score” value was 0.0559.

Regarding ACTTTGCA, the “PBM E-score” value was 0.0101. To CCGTGTTC belongs 0.0457; to TACTCAAA, 0.00677; to CCAGCCTA, -0.259. As for ATTGGTAC, the figure is 0.0441; as for CACTTCTG, -0.309. As for CATTTTTA, the figure is -0.0383; as for AGCTGCTA, -0.262; as for CACTAATC, -0.00017. As to GCTACGAC, the “PBM E-score” value was 0.379.

Consider CATGAGTC, for which the “PBM E-score” value was -0.0488. As for TAGAGCCA, the figure is -0.159; as for AATGAATC, -0.122; as for CTGGAAAC, 0.139.

As to GCTACACA, the “PBM E-score” value is -0.138. Consider AACGACTC, for which the “PBM E-score” value came to 0.401. To CAGCGCGC belongs -0.0787; to ACCGGCAG, -0.183; to CTATTCCC, -0.346. To ATTGGGAA belongs 0.0278; to TGCTTTAA, 0.153; to GACGTTCA, 0.0943. Consider GCGGCCCA, for which the “PBM E-score” value is -0.129. Turning to CTACATTC, the “PBM E-score” value was -0.127. As for GGAAAACC, the figure is -0.0101; as for GCCCGTCA, -0.3; as for CATCCATC, -0.167.

Regarding GCGTCGAC, the “PBM E-score” value is -0.0524. On to GTTCTTGA, for which the “PBM E-score” value worked out at 0.12. Take CCCTTACA: the “PBM E-score” value was -0.0928. Consider CCGAGTGC, for which the “PBM E-score” value is -0.0549. Consider AATCCTGA, for which the “PBM E-score” value is -0.098.

Consider CATGTTCA, for which the “PBM E-score” value was -0.294. To ATTAGTAA belongs 0.0479; to ATCGTTCG, 0.384. To GAGCCCTA belongs -0.239. To CACGAATC belongs 0.0313. Consider CGTATACA, for which the “PBM E-score” value worked out at 0.474. As for CCTTGACA, the figure is -0.272; as for CTTTTTGA, -0.112. As for ACATATCT, the “PBM E-score” value was -0.0474. For the sequence ACTTAGCC, the “PBM E-score” value is -0.227. To CGCTGTTA belongs -0.0569; to AATGTGTG, -0.0172.

As to AGTGGGTG, the “PBM E-score” value was -0.107. Take AACCCTGG: the “PBM E-score” value is -0.00894. As for ATTGTGTA, the figure is 0.0951.

For the sequence AGAGTCAG, the “PBM E-score” value was -0.0459.

For AGCAGGAG, the “PBM E-score” value was -0.116. In the case of GTGTCGAA, the “PBM E-score” value is -0.0801. As for AACAAAGG, the figure is -0.201; as for CCGACTTA, 0.0676.

For CCACCACA, the “PBM E-score” value was -0.259. AACCTAAA: the “PBM E-score” value is 0.134. Consider AGATGATA, for which the “PBM E-score” value was -0.113. As for AGGTACGA, the figure is 0.47; as for GAAGCCAC, -0.0549; as for AAACAGCT, -0.0425. As for GAAGCAGA, the figure is -0.244; as for GATGAATA, -0.041. Turning to CACACTTC, the “PBM E-score” value is -0.0815. As for CATTGCCG, the figure is 0.0539; as for AGTAGACA, 0.00194; as for CCCGTCAA, -0.082.
